From the supplement of paper PMC12217912
The other results are listed elsewhere or left out. The full chains were built here from the parent and the listed change. Values near 0.05 are background.

B1: TEV protease; numbered along this chain (parent)
chain: MGESLFKGPRDYNPISSSICHLTNESDGHTTSLYGIGFGPFIITNKHLFRRNNGTLVVQSLHGVFKVKDTTTLQQHLVDGRDMIIIRMPKDFPPFPQKLKFREPQREERICLVTTNFQTKSMSSMVSDTSCTFPSGDGIFWKHWIQTKDGQCGSPLVSTRDGFIVGIHSASNFTNTNNYFTSVPKNFMELLTNQEAQQWVSGWRLNADSVLWGGHKVFMVKPEEPFQPVKEATQL

Variants of: B1
Assay: raw area under fraction-flipped curve 0-4 h after induction (AUC4h, not background-subtracted), DNA-recorder readout of cleavage of the substrate (dimensionless); higher = more cleavage of the substrate by the protease variant
Conditions: temperature: 34 °C; time window: 0-4 h after rhamnose induction
Method: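 In vivo DNA recorder in E. coli TOP10(DE3) ΔrhaA at 34 °C. Each TEVp single-site mutant (parent TEVp 0) is paired with a single-site variant of the 7-mer TEVs (canonical ENLYFQ|S). The substrate sits between flexible linkers in a Bxb1-sfGFP-TEVs-SsrA fusion, so cleavage stabilises Bxb1 and speeds flipping of a recombination array, read by NGS. The value is the raw area under the fraction-flipped curve over 0-4 h after rhamnose induction (AUC4h), with ≥20 reads per time point. It is not background-subtracted; inactive controls average about 0.047.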
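Further: Bxb1 expression induced with 0.2% (w/v) L-rhamnose at OD600 near 0.5, cultures sampled hourly, flipped fraction per protease–substrate barcode pair counted by paired-end Illumina sequencing.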

| Variant | area with substrate ENLYDQS | area with substrate ENLYEQS | area with substrate ENLYGQS | area with substrate ENLYHQS | area with substrate ENLYKQS | area with substrate ENLYLQS | area with substrate ENLYNQS | area with substrate ENLYPQS | area with substrate ENLYQQS | area with substrate ENLYRQS | area with substrate ENLYTQS | area with substrate ENLYVQS | area with substrate ENLYWQS | area with substrate ENLYSQS | area with substrate ENLYIQS | area with substrate ENLYMQS | area with substrate ENLYYQS |
| --- | --- | --- | --- | --- | --- | --- | --- | --- | --- | --- | --- | --- | --- | --- | --- | --- | --- |
| MGESLFKGPRDYNPISSSICHLTNESDGHTTSLYGIGFGPFIITNKHLFRRNNGTLVVQSLHGVFKVKDTTTLQQHLVDGRDMIIIRMPKDFPPFPQKLKFREPQREERICLVTTNFQTKSMSSMVSDTSCTFPSGDGIFWKHWIQTKDGQCGSPLVSTRDGFIVGIHEASNFTNTNNYFTSVPKNFMELLTNQEAQQWVSGWRLNADSVLWGGHKVFMVKPEEPFQPVKEATQL [S169E] | 0.0722 | 0.0584 | 0.0574 | 0.0719 | 0.0597 | 0.0546 | 0.0584 | 0.0546 | 0.022 | 0.0571 | 0.0737 | 0.0532 | 0.0464 | – | – | – | – |
| MGESLFKGPRDYNPISSSICHLTNESDGHTTSLYGIGFGPFIITNKHLFRRNNGTLVVQSLHGVFKVKDTTTLQQHLVDGRDMIIIRMPKDFPPFPQKLKFREPQREERICLVTTNFQTKSMSSMVSDTSCTFPSGDGIFWKHWIQTKDGQCGSPLVSTRDGFIVGIHSASNFTNTNGYFTSVPKNFMELLTNQEAQQWVSGWRLNADSVLWGGHKVFMVKPEEPFQPVKEATQL [N178G] | 0.0684 | 0.0689 | – | 0.0608 | 0.058 | 0.0867 | 0.0498 | – | 0.0453 | 0.0674 | – | 0.142 | – | 0.0954 | – | – | – |
| MGESLFKGPRDYNPISSSICHLTNESDGHTTSLYGIGFGPFIITNKHLFRRNNGTLVVQSLHGVFKVKDTTTLQQHLVDGRDMIIIRMPKDFPPFPQKLKFREPQREERICLVTTNFQTKSMSSMVSDTSCTFPSGDGIFWKHWIQTKDGQCGSPLVSTRDGFIVGIHSASNFTNTNEYFTSVPKNFMELLTNQEAQQWVSGWRLNADSVLWGGHKVFMVKPEEPFQPVKEATQL [N178E] | 0.073 | – | 0.062 | – | – | – | 0.0621 | 0.0273 | 0.0113 | 0.063 | – | 0.0582 | – | – | 0.0647 | 0.0651 | – |
| MGESLFKGPRDYNPISSSICHLTNESDGHTTSLYGIGFGPFIITNKHLFRRNNGTLVVQSLHGVFKVKDTTTLQQHLVDGRDMIIIRMPKDFPPFPQKLKFREPQREERICLVTTNFQTKSMSSMVSDTSCTFPSGDGIFWKHWIQTKDGQCGSPLVSTRDGFIVGIHSASNFTNTNNYFTSVPHNFMELLTNQEAQQWVSGWRLNADSVLWGGHKVFMVKPEEPFQPVKEATQL [K185H] | 0.0711 | 0.0823 | – | – | 0.0248 | – | 0.0786 | – | – | 0.0515 | – | – | – | – | – | – | 0.055 |
| MGESLFKGPRDYNPISSSICHLTNESDGHTTSLYGIGFGPFIITNKHLFRRNNGTLVVQSLHGVFKVKDTTTLQQHLVDGRDMIIIRMPKDFPPFPQKLKFREPQREERICLVTTNFQTKSMSSMVSDTSCTFPSGDGIFWKHWIQTKDGQCGSPLVSTRDGFIVGIHSASNFTNTNNYFTIVPKNFMELLTNQEAQQWVSGWRLNADSVLWGGHKVFMVKPEEPFQPVKEATQL [S182I] | 0.0595 | 0.0625 | – | 0.0698 | 0.0565 | – | 0.0595 | 0.0746 | 0.0594 | – | 0.0734 | – | 0.101 | – | 0.1 | 0.0888 | 0.0457 |
| MGESLFKGPRDYNPISSSICHLTNESDGHTTSLYGIGFGPFIITNKHLFRRNNGTLVVQSLHGVFKVKDTTTLQQHLVDGRDMIIIRMPKDFPPFPQKLKFREPQREERICLVTTNFQTKSMSSMVSDTSCTFPSGDGIFWKHWIQTKDGQCGSPLVSTRDGFIVGIHSASNFTNTNNYFTSQPKNFMELLTNQEAQQWVSGWRLNADSVLWGGHKVFMVKPEEPFQPVKEATQL [V183Q] | 0.059 | 0.0813 | 0.0359 | 0.0676 | 0.0224 | 0.0794 | 0.056 | – | 0.0616 | 0.0481 | 0.0516 | – | 0.0558 | 0.0466 | 0.0501 | 0.0619 | – |
| MGESLFKGPRDYNPISSSICHLTNESDGHTTSLYGIGFGPFIITNKHLFRRNNGTLVVQSLHGVFKVKDTTTLQQHLVDGRDMIIIRMPKDFPPFPQKLKFREPQREERICLVTTNFQTKSMSSMVSDTSCTFPSGDGIFWKHWIQTKDGQCGSPLVSTRDGFIVGIHSASNFNNTNNYFTSVPKNFMELLTNQEAQQWVSGWRLNADSVLWGGHKVFMVKPEEPFQPVKEATQL [T174N] | 0.0574 | 0.065 | 0.0716 | 0.0649 | 0.0547 | – | – | 0.0783 | – | 0.0587 | 0.0558 | 0.113 | 0.0843 | – | – | 0.108 | – |
| MGESLFKGPRDYNPISSSICHLTNESDGHTTSLYGIGFGPFIITNKHLFRRNNGTLVVQSLHGVFKVKDTTTLQQHLVDGRDMIIIRMPKDFPPFPQKLKFREPQREERICLVTTNFQTKSMSSMVSDTSCTFPSGDGIFWKHWIQTKDGQCGSPLVSTRDGFIYGIHSASNFTNTNNYFTSVPKNFMELLTNQEAQQWVSGWRLNADSVLWGGHKVFMVKPEEPFQPVKEATQL [V165Y] | 0.0537 | – | 0.0557 | 0.0601 | – | – | 0.0579 | 0.058 | – | 0.0569 | – | 0.0536 | 0.0447 | 0.0429 | 0.0369 | 0.0512 | – |
| MGESLFKGPRDYNPISSSICHLTNESDGHTTSLYGIGFGPFIITNKHLFRRNNGTLVVQSLHGVFKVKDTTTLQQHLVDGRDMIIIRMPKDFPPFPQKLKFREPQREERICLVTTNFQTKSMSSMVSDTSCTFPSGDGIFWKHWIQTKDGQCGSPLVSTRDGFIVGIHSASNFTNTNNYFTSVPKNFMELETNQEAQQWVSGWRLNADSVLWGGHKVFMVKPEEPFQPVKEATQL [L191E] | 0.054 | 0.0638 | 0.0585 | 0.0605 | – | 0.0533 | 0.0517 | 0.0612 | 0.0661 | 0.0577 | – | – | 0.0525 | 0.055 | 0.0698 | 0.0591 | 0.0528 |
